Measurements reported in PubChem BioAssay AID720709 (National Center for Advancing Translational Sciences (NCATS), 2013).
About 520 (0.14%) of roughly 360,000 compounds were called active. This list was built around the results that the source calls inconclusive (neither active nor inactive); the mix of calls is not that of the screen. Calls come from the whole dose curve; as a rule, active = well fitted inhibition curve with a large enough effect; inconclusive = small, poorly fitted or top-dose-only effect; inactive = no such curve, though single readings can be large or run the other way. Potencies beside an inconclusive call are fits to weak or partial responses and may not hold up.

The compounds below were run against Rap guanine nucleotide exchange factor 3 (Homo sapiens) (UniProt O95398) (assay: qHTS for Antagonist of cAMP-regulated guanine nucleotide exchange factor 3 (EPAC1): primary screen). Details: EPAC1 GEF assay, Rap1b-BODIPY-GDP exchange fluorescence; activity change, negative = inhibition: at 115 µM (top of the series).
Description: In multi-cellular eukaryotic organisms, the effects of cAMP are transduced by two ubiquitously-expressed intracellular cAMP receptors, the classic protein kinase A/cAMP-dependent protein kinase (PKA/cAPK) and the more recently discovered exchange protein directly activated by cAMP/cAMP-regulated guanine nucleotide exchange factor (EPAC/cAMP-GEF). Both PKA and EPAC are ubiquitously expressed in all tissues, and an increase in intracellular cAMP levels will lead to the activation of both PKA and EPAC. Therefore, careful dissections of the individual role and relative contribution of EPAC and PKA within the overall cAMP signaling in various model systems are critical for further elucidating the mechanism of cAMP signaling. To date no EPAC-specific antagonists and agonist, as well as isoform-specific agonists have been reported, and developing EPAC-specific pharmacological probes to determine the physiological functions that EPAC play in the overall cAMP-mediated signaling remains a major challenge within the research field. Furthermore, identified regulators of EPAC may lead to new mechanism-based therapeutic strategies specifically targeting the EPAC / cAMP-signaling components as EPAC has been implicated to play important roles in major human pathological conditions such as diabetes, heart disease, and cancer. This qHTS will be used to screen the Molecular Libraries Small Molecule Repository (MLSMR) as a concentration-titration series using the NCGC unique quantitative screening (qHTS) platform to find inhibitors for EPAC1. In addition, this assay will also be used as a counterscreen for the EPAC2 qHTS. This fluorescent based assay is developed and validated for EPAC1 that measures exchange using EPAC effector Rap1 complex with BODIPY-GDP, a GDP analog with a tethered fluorophores. Inhibitors are identified by monitoring the change in fluorescence signal as the exchanged free BODIPY-GDP has a reduced fluorescence compared to Rap1-bound BODIPY-GDP. Decrease in signal (inhibition) is the desired outcome for the EPAC1 antagonist while no activity in this assay is desired for the EPAC2 antagonist counterscreen. de Rooij, J., Zwartkruis, F. J., Verheijen, M. H., Cool, R. H., Nijman, S. M., Wittinghofer, A., and Bos, J.L. (1998) Nature 396, 474-477 [2] Kawasaki, H., Springett, G. M., Mochizuki, N., Toki, S., Nakaya, M., Matsuda, M., Housman, D. E., and Graybiel, A. M. (1998) Science 282, 2275-2279 NIH Chemical Genomics Center [NCGC] NIH Molecular Libraries Probe Centers Network [MLPCN] MLPCN Grant: NS066510 Assay Submitter (PI): Xiaodong Cheng, The University of Texas, Medical Branch
Briefly, three uL of reagents (100 nM EPAC1, 250 nM RAP1B-BODIPY-GDP, 50 uM GDP) were dispensed into a 1536-well Greiner black solid-bottom medium binding assay plate. Controls and test compounds (23 nL) were transferred to the plate via a Kalypsys pin tool equipped with a 1536-pin array. The plates were centrifuged at 1,000 rpm for 15 seconds followed by 5 minute incubation at room temperature. The assay plates were read at 5 minute intervals for 30 minutes in the ViewLux plate reader using 480nm excitation and 540nm emission filters. The results were normalized to the […] positive control ATA and DMSO.
Note: nearly all actives have a fitted effect of over 50% in size.
Potency is the fitted concentration of half-maximal effect; tags give direction and shape of the fitted curve.
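Throughout, for activity change, negative = inhibition: plate controls were vehicle for no effect and positive control for full effect.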

UniProt O95398, sequence (O95398 whole entry, looked up): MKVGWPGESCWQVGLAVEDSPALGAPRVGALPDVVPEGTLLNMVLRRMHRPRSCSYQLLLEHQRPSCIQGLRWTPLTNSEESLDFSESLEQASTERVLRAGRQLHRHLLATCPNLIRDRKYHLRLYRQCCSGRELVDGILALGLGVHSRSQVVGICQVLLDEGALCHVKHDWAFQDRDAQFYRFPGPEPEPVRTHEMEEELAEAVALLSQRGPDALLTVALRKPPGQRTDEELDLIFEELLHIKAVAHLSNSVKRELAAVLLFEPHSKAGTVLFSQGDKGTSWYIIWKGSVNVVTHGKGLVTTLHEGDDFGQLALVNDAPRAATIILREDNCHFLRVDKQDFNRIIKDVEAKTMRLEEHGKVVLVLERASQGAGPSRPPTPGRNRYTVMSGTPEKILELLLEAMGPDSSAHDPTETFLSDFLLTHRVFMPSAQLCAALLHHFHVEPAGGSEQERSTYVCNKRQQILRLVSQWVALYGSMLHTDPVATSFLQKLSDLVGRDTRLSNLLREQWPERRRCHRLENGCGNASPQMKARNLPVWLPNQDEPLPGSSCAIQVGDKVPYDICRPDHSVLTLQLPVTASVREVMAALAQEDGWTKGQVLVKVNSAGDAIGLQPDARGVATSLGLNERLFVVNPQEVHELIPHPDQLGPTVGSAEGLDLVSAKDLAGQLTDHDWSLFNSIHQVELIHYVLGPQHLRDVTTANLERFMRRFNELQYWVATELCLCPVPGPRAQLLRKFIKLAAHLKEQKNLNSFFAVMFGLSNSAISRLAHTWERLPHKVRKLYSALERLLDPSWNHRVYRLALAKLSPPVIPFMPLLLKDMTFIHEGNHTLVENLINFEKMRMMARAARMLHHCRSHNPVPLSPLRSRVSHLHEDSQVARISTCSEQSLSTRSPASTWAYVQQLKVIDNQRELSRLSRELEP

Potency, inactive:
O=C(NNc1ccccc1C(F)(F)F)c1sccc1Br
Cc1occc1C(=O)NNC(=O)c1ccccc1C(=O)O
COc1ccc(CN2CCC(Oc3cc(C(=O)NC4CC4)ccc3OC)CC2)c(O)c1
COc1cc(/C=C2/C(=O)ON=C2C)cc(Cl)c1O
O=C(c1ccco1)N1CCN(Cc2ccccc2Br)CC1
O=[N+]([O-])c1ccc(F)cc1OCc1nc(-c2cccs2)no1

Potency, inconclusive:
COc1ccccc1C(=O)NCC(=O)OCC(=O)Nc1cccc(S(=O)(=O)N2CCCCCC2)c1 8.91 µM [inhibitor, partial curve]
Cc1cc2cc(C=C(C#N)C#N)c(Cl)nc2cc1C 100 µM [inhibitor, single point]
COc1ccccc1NC(=O)c1cccc(S(=O)(=O)N2CCN(Cc3ccccc3)CC2)c1 79.4 µM [inhibitor, single point]
CC(Sc1ccc(Cl)cc1)C(=O)Nc1ccccc1-c1ccccc1 (centres undefined) 22.4 µM [inhibitor, full curve]
COc1ccccc1N1CCN(Cc2cc(=O)c(OCC(=O)Nc3ccccc3)co2)CC1 31.6 µM [inhibitor, partial curve]
Nc1nc(-c2ccc(F)cc2)cs1 100 µM [inhibitor, single point]
CC1(Cc2ccccc2OC(F)(F)F)C(=O)Nc2ccc(OC(F)(F)F)cc21 (centres undefined) 35.5 µM [inhibitor, partial curve]
CC(C)C[C@@H](CNCC(=O)[C@H](CC(C)C)NC(=O)c1[nH]cnc1C(=O)N[C@@H](C)CN)NC(=O)c1nc[nH]c1C(=O)N[C@@H](CC(=O)O)C(=O)O 31.6 µM [inhibitor, partial curve, poor fit]
CCOC(=O)c1cc(-c2ccc(C)cc2)n(CCC(=O)N2CCN(c3ccccn3)CC2)c1C 56.2 µM [inhibitor, partial curve]
Cc1cc(S(=O)(=O)Nc2ccc(C(=O)N3CC(C)OC(C)C3)cc2)ccc1F (centres undefined) 20 µM [inhibitor, partial curve]
CC(C)=CCC[C@H](C)C[C@@H]1Cc2[nH][nH]c(=O)c2[C@H](c2ccc(Cl)cc2)O1 39.8 µM [inhibitor, partial curve]
CCCSc1nnc(NC(=O)CSc2sc3c(O)cc(=O)[nH]c3c2C#N)s1 25.1 µM [inhibitor, full curve]

Activity change, negative = inhibition, inconclusive:
CCCCCCn1c(=O)c(F)cn(Cc2ccc(OC)c([N+](=O)[O-])c2)c1=O -16.5% [inhibitor]
